PubChem BioAssay AID485313 (National Center for Advancing Translational Sciences (NCATS), 2010)
In all, about 320,000 compounds went through this assay and about 7,600 (2.4%) were called active. The shares of active, inactive and inconclusive entries below differ from those in the screen. Calls follow the shape of the dose curve; as a rule, active = well fitted activation curve with a large enough effect; inconclusive = small, poorly fitted or top-dose-only effect; inactive = no such curve, though single readings can be large or run the other way. Potencies beside an inconclusive call are fits to weak or partial responses and may not hold up.

Test: qHTS Assay for NPC1 Promoter Activators; also: nearly all actives have a fitted effect of over 60% in size;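 as to activation: reporter is driven by a mutant NPC1 promoter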
Details: Huh7 NPC1 promoter luciferase reporter, 24 h; series mostly up to 9.22 µM
In short: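 Huh7 cells stably carrying NPC1 promoter–luciferase, plated in Opti-MEM with 10% FBS for 2 h, were exposed to compound in DMSO for 24 h at 37 °C; luciferase reagent was added for 10 min and luminescence read.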
Potency is read from the fitted curve at half-maximal effect; tags tell the direction and shape of the fitted curve.

Potency, inactive:
O=C(N/N=C1\CC(c2ccccc2)Oc2ccccc21)c1cccnc1 (stereo not drawn), CCOC(=O)c1ccc(Nc2cc(C)nc(-c3ccccc3)n2)cc1, CCOC(=O)/C(C#N)=N/Nc1c(S(=O)(=O)Cc2ccco2)csc1C(=O)OC, O=C(Oc1ccc(/C=N/O)cc1)c1ccccc1Cl, CCOc1ccc(NC(=O)c2cc3c(C)nc4ccccc4c3o2)cc1, O=C(COc1ccc2ccc(=O)oc2c1)Nc1ccc(N2CCOCC2)cc1, Cc1ccc(-c2nn3c(C)nnc3s2)cc1NC(=O)C(C)C, Cc1ccccc1-c1nnc(NC(=O)c2cc3ccccc3oc2=O)s1, Cc1ccc(S(=O)(=O)Oc2ccccc2/C=N/Nc2ccc(C(=O)O)cc2)cc1, CCOC(=O)c1sc2nc(C)nc(NCCc3ccccn3)c2c1C, CC#C[C@@H](CC)c1ccc2ccn(C)c2c1, O=C(O)CCCn1ccc2cc(S(=O)(=O)N3CCCC3)ccc21, COC(=O)c1sccc1NC(=O)Nc1ccc(F)cc1F, Cc1ccn2c(NC3CCCC3)c(-c3ccncc3)nc2c1, C/C(CC(=O)NC1CCCC1)=N\NC(=O)c1ccc([N+](=O)[O-])c(Cl)c1, FC(F)(F)c1cccc(OCCOCCn2cncn2)c1, O=C(NC1CCCC1)C(c1ccsc1)N(C(=O)Cc1cccs1)c1ccc(F)cc1 (stereo not drawn), COc1ccc(/C=C(\C#N)C(=O)OCC(=O)Nc2ccc(C(C)(C)C)cc2)cc1, COc1ccc(NC2CCCN(C(=O)CN3C(=O)c4ccccc4C3=O)C2)cc1OC (stereo not drawn), COc1ccc(CCC(=O)Nc2cc3c4c(c2)CC(=O)N4CCC3)cc1

Potency, active:
Cc1cc2nc(N3C(=O)CNC3=S)sc2cc1C 0.447 µM, O=C(CNC(=O)c1ccccc1F)c1ccccc1 0.447 µM, CCCOc1ccc(N2C(=O)CC(SCCN)C2=O)cc1 (stereo not drawn) 3.98 µM, Cc1ccc(OCCSc2nc(N)cc(N)n2)cc1 3.16 µM, COC(=O)c1sc(NC(=O)CSc2nnnn2C)nc1C 2.24 µM, COc1cc(C)ccc1OCc1cc(C(=O)NCCN2CCOCC2)no1 2.24 µM, COC(=O)C1C(=O)c2c([nH]c(C(=O)OC3CCCC3C)c2C)CC1C (stereo not drawn) 1.58 µM, CCOc1ccccc1-c1nc(-c2ccc(C)nc2OC)no1 4.47 µM, CCCCc1c(C)c2ccc(OCC(C)=O)cc2oc1=O 3.16 µM, C/C(=N\NC(=O)c1ccncc1)c1cccc(NC(=O)c2ccc(C(C)(C)C)cc2)c1 1.41 µM, O=C(COc1ccccc1Cl)N1CCc2ccccc21 2 µM, O=C(Nc1ccccc1F)N1CCc2ccccc2C1 1.26 µM

Potency, inconclusive:
CN(C)S(=O)(=O)c1ccc(C(=O)Nc2nc3ccccc3[nH]2)cc1 4.47 µM [activator, single point], CCC(C)(C)c1nnc(NC(=O)c2ccc([N+](=O)[O-])cc2)s1 2.82 µM [activator, partial curve], COc1cc(NC(=O)c2c(F)cccc2F)nc(OC)n1 5.62 µM [activator, single point], CN(C)S(=O)(=O)Oc1ccc(C(=O)Nc2cccc(Cl)c2)cc1 3.55 µM [activator, partial curve], Cc1ccc2nc(-c3cccc(NC(=O)c4ccco4)c3)[nH]c2c1 3.55 µM [activator, partial curve], COc1ccc2sc3ccccc3c(=O)c2c1 3.98 µM [activator, single point], Cc1ccc(N(C(=O)Cc2cccs2)C(C(=O)NCC2CCCO2)c2ccncc2)cc1 (stereo not drawn) 5.62 µM [activator, single point], O=C1C(C=NCCCN2CCCC2=O)=C(O)c2ccccc21 1.58 µM [activator, partial curve], COC(=O)c1cc(Cl)c(NC(=O)c2cc3ccccc3o2)cc1OC 1.78 µM [activator, partial curve], COc1ccc(Br)c(-c2nnc(CS(=O)(=O)c3ccccc3)o2)c1 2.24 µM [activator, partial curve], N/C(=N\O)c1ccc(NC(=O)c2ccc(Br)o2)cc1 3.16 µM [activator, single point], COc1ccc(O)c(C(=O)C2c3ccccc3C(=O)N2c2ccc(C)cc2)c1 (stereo not drawn) 3.16 µM [activator, single point], CN(CC(=O)Nc1cccc(F)c1)C(=O)CCCNC(=O)c1ccc(Cl)cc1 4.47 µM [activator, single point], N/C(=N\OC(=O)c1ccccc1)c1ccncc1 3.98 µM [activator, partial curve], O=[N+]([O-])c1ccc(-c2csc(N3CCCCCC3)n2)cc1 3.55 µM [activator, partial curve], COc1ccc(N2Cc3ccccc3C2=O)cc1 0.398 µM [activator, partial curve, poor fit], CC(Oc1ccc(Cl)cc1Cl)c1nc(-c2ccccn2)no1 (stereo not drawn) 3.16 µM [activator, single point], O=C(Nc1ccccn1)c1ccco1 3.55 µM [activator, single point], CN(C(=O)CSc1ncnc2sccc12)C1CCCCC1 2.82 µM [activator, partial curve], COc1ccc(CNc2ccc(C)c(C)c2)cc1 3.98 µM [activator, single point], CSc1nc(O)c(N=Nc2ccc(F)cc2F)c(=O)[nH]1 3.16 µM [activator, single point], O=C(c1ccccc1)N1CCSc2sccc2C1=O 0.501 µM [activator, full curve], O=C(Nc1ccccc1)Nc1ccc(C(F)(F)F)cn1 4.47 µM [activator, single point], CCc1ccc(OCC(=O)Nc2ncn[nH]2)cc1 3.16 µM [activator, single point], Nn1c(SCc2ccccc2F)nnc1-c1cccnc1 2.51 µM [activator, partial curve], COc1ccc(Nc2nc(N)nc(CSc3nnc(N)s3)n2)cc1 3.98 µM [activator, partial curve], CC(=Nc1ccc(C)cc1C)c1sc2ccccc2c1O 3.55 µM [activator, single point], COc1cc(C)ccc1OCC(=O)Nc1ccc2c(c1)OCO2 3.16 µM [activator, partial curve], COc1ccccc1-c1nnc(NC(C)=O)s1 3.55 µM [activator, single point], O=C(c1cnn(-c2ccccc2)c1)c1ccccc1O 3.98 µM [activator, single point], CN(C)c1ccc(-c2nnc(SCC3CCCO3)n2C)cc1 (stereo not drawn) 2.24 µM [activator, partial curve], COc1ccc(N(CC(=O)Nc2cccnc2)S(=O)(=O)c2ccccc2)cc1Cl 1.26 µM [activator, single point], CCOC(=O)c1ccc(-c2ccc3[nH]c4ccccc4c(=O)c3c2)cc1F 5.62 µM [activator, single point], C=CCn1c(CC(=O)OC)csc1=Nc1ccc(C(C)=O)cc1 4.47 µM [activator, single point], O=C(NCCOc1ccccc1)c1ccc2n[nH]nc2c1 3.16 µM [activator, partial curve], Cc1ccc(C(=O)Nc2ccc3c(c2)CCC3)cc1 0.398 µM [activator, partial curve, poor fit], COc1ccc(/C=C/c2nnc(NC(=O)CSc3ccc(Cl)cc3)s2)cc1 2 µM [activator, partial curve], C=CCn1c(SCC(=O)Nc2ccc(-c3nc4ccc(C)cc4s3)cc2)nnc1-c1ccncc1 0.631 µM [activator, full curve], CC1Oc2ccccc2C=C1/C=N/NC(=O)c1ccccc1O (stereo not drawn) 0.282 µM [activator, full curve, poor fit], C/C(=N\NC(=O)c1ccccc1F)c1ccc(C#N)cc1 3.55 µM [activator, partial curve], c1ccc2[nH]c(-c3cscn3)nc2c1 3.55 µM [activator, single point], COc1ccc(/C=C/C2=NC(=C\N(C)C)/C(=O)O2)cc1 3.98 µM [activator, partial curve], CCOC(=O)c1sc(NC(=O)C2CCC2)cc1C 3.16 µM [activator, single point], c1ccc(C2CSc3ccccc3N2)cc1 (stereo not drawn) 5.62 µM [activator, single point], COc1ccc(C(=O)CNc2ccccc2C#N)cc1 3.55 µM [activator, single point], C/[N+]([O-])=C/c1c(OCc2ccccc2)ccc2ccccc12 5.01 µM [activator, single point]
